# Measurements taken from the supplement of paper PMC4604168 (melanoma cell lines).
# The list shows a part of the results. Repeats are few or missing, and single values can be far off.
# Columns and labels:
# Test in all cases: cell count relative to DMSO control; melanoma cells; higher = more viable cells
# Details in all cases: library dose: low library concentration; 72 h
# MZ2-MEL = system: MZ2-MEL
# MeWo = system: MeWo
# RPMI7951 = system: RPMI7951
# RVH-421 = system: RVH-421
# SkMel28 = system: SkMel28
# SkMel2 = system: SkMel2
# SkMel30 = system: SkMel30
# SkMel5 = system: SkMel5
# UACC257 = system: UACC257
# UACC62 = system: UACC62
# WM115 = system: WM115
# WM1716 = system: WM1716
# WM1745 = system: WM1745
# WM3526 = system: WM3526
# WM3619 = system: WM3619
# WM451Lu = system: WM451Lu
# 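Further: cell number obtained by counting DAPI-stained nuclei in high-throughput microscope images with image analysis software, screen run in 1,536-well plates.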
Compound,cell count (MZ2-MEL) [%],cell count (MeWo) [%],cell count (RPMI7951) [%],cell count (RVH-421) [%],cell count (SkMel28) [%],cell count (SkMel2) [%],cell count (SkMel30) [%],cell count (SkMel5) [%],cell count (UACC257) [%],cell count (UACC62) [%],cell count (WM115) [%],cell count (WM1716) [%],cell count (WM1745) [%],cell count (WM3526) [%],cell count (WM3619) [%],cell count (WM451Lu) [%]
"Cc1ccc(NC(=O)c2cccc(N(C)C)c2)cc1NC(=O)c1ccc(O)cc1 + Cn1cncc1[C@@](N)(c1ccc(Cl)cc1)c1ccc2c(c1)c(-c1cccc(Cl)c1)cc(=O)n2C [tipifarnib] (first compound 2 µM, partner dose 0.01 µM)",83.7,94.1,85.5,107,73.3,89.2,82.5,97.9,85.1,82.2,92.1,93.5,85.5,84.1,89.2,92.7
"CCCCCCCCc1ccc(CCC(N)(CO)CO)cc1 [fingolimod] + CC1(C)NC(=O)N(c2ccc([N+](=O)[O-])c(C(F)(F)F)c2)C1=O [nilutamide] (first compound 2 µM, partner dose 1 µM)",95.4,92.1,88.2,115,98,104,87.9,94.6,75.2,78.7,112,99.4,75.2,88,86.8,85.7
"CC(C)(C)c1cnc(CSc2cnc(NC(=O)C3CCNCC3)s2)o1 + COc1cc2c(Oc3ccc4[nH]c(C)cc4c3F)ncnc2cc1OCCCN1CCCC1 [cediranib] (first compound 0.01 µM, partner dose 0.4 µM)",102,100,95.7,113,89.1,95,107,90.8,76.5,83.9,95.4,87.3,89.7,99.7,99.8,127
"CC(C)(C)c1cnc(CSc2cnc(NC(=O)C3CCNCC3)s2)o1 + O=C(Nc1cccc(Cl)c1)Nc1ncc(CCNc2ncnc3ccsc23)s1 [SNS314] (first compound 0.01 µM, partner dose 0.0008 µM)",97,100,86.7,97.1,105,97,90.8,103,68.6,82.4,101,106,72.9,86.1,102,87.2
"CCCCCCCCc1ccc(CCC(N)(CO)CO)cc1 [fingolimod] + O=C(O)c1ccc(-c2c[nH]c3ncc(-c4ccccc4)cc23)cc1C1CCCC1 [GSK650394] (first compound 2 µM, partner dose 0.16 µM)",97.5,105,110,129,95.7,93.1,98.9,90.5,82.3,86.3,90.6,97.5,81,83,95.9,124
"NC(=O)c1ccc(N(C(N)=O)c2c(F)cccc2F)nc1-c1ccc(F)cc1F + N#Cc1c(O)c2c(-c3ccc(-c4ccccc4O)cc3)csc2[nH]c1=O [A769662] (first compound 0.4 µM, partner dose 2 µM)",107,99.9,103,104,101,101,96,113,107,102,98,101,94.2,105,112,88
"CCCCCCCCc1ccc(CCC(N)(CO)CO)cc1 [fingolimod] + CO[C@@H]1[C@H](N(C)C(=O)c2ccccc2)C[C@H]2O[C@]1(C)n1c3ccccc3c3c4c(c5c6ccccc6n2c5c31)C(=O)NC4 [Midostaurin] (first compound 2 µM, partner dose 0.08 µM)",96.3,81.5,65.7,92.4,102,77.8,90.9,82.4,74.2,87.9,80.1,66,69,81.8,87.3,74.5
"CC(C)(C)c1cnc(CSc2cnc(NC(=O)C3CCNCC3)s2)o1 + O=C(O)c1ccc(-c2c[nH]c3ncc(-c4ccccc4)cc23)cc1C1CCCC1 [GSK650394] (first compound 0.01 µM, partner dose 0.16 µM)",91.9,88.3,103,81.1,80.5,93,94.8,106,95.8,82.8,91.2,103,109,93.5,134,116
"Cc1ccc(NC(=O)c2cccc(N(C)C)c2)cc1NC(=O)c1ccc(O)cc1 + OCCn1cc(-c2cnc3nnn(Cc4ccc5ncccc5c4)c3n2)cn1 [PF04217903] (first compound 2 µM, partner dose 1 µM)",70.4,93.5,82.9,104,93.1,114,90.4,105,106,103,90.2,91,80.4,93.2,105,128
"Cc1ccc(NC(=O)c2cccc(N(C)C)c2)cc1NC(=O)c1ccc(O)cc1 + CN(NC(=O)CC(=O)NN(C)C(=S)c1ccccc1)C(=S)c1ccccc1 [STA4783] (first compound 2 µM, partner dose 0.006 µM)",75.8,100,95.9,88.1,91,96.2,85.7,109,81.1,80.3,73,57.3,41.4,84,58.1,97.1
